This sample is rich in variants without activity.
B1: TPR 5TU (parent)
chain: GGAUCUUCUCGAUCUAACAAAAAAGACAAAUCUGCCACAAAGCUUGAGAGCAUCUUCGGAUGCAGAGGCGGCAGCCUUCGGUGGCGCGAUAGCGCCAACGUUCUCAACUAUGACACGCAAAACGCGUGCUCCGUUGAAUGGAGUUUAUCAUG

Variants of: B1
Test: polymerase ribozyme fitness, log enrichment relative to wild type (log ratio); higher = more active; in vitro selection for triplet polymerase activity
In short: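 Fitness is a logarithmic measure of how a genotype enriched relative to the wild type, with replicate averages weighted by inverse variance. The logarithm uses base 2, and enrichment came from Illumina sequencing of input and output libraries. Those libraries were PCR-built, transcribed mutants of each subunit of a heterodimeric triplet polymerase ribozyme, passed through one triplicate in vitro selection round that included frozen incubation at −7 °C, gel excision of extended constructs and streptavidin-bead capture. Genotypes were kept only if they had ≥10 input reads and ≥1 read per output.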

| Variant | polymerase ribozyme fitness (log ratio) |
| --- | --- |
| GGAUCUUCUCGAUCUAACAAAAAAGAGAAAUCUGCCACAAAGCUUGAGAGCAUCUUCGGAUGCAGAGGCGGCAGCCUUCGGUGGCGCGAUACCGCCAACGUUCUCAACUAUGACACGCAAAACGCGUGCUCCGUUGAAUGGUGUUUAUCAUG | ≤ -4.2 |
| GGAUCUUCUCGAUCUAACAAAAAAGAGAAAUCUGCCACAAAGCUUGAGAGCAUCUUCGGAUGCAGAGGCGGCAGCCUUCGGUGGCGCGAUACCGCCAAUGUUCUCACCUAUGACACGCAAAACGCGUGCUCCGAUGAAUGGAGUUUAUCAUG | ≤ -4.2 |
| GGAUCUUCUCGAUCUAACAAAAAAGAGAAAUCUGCCACAAAGCUUGAGAGCAUCUUCGGAUGCAGAGGCGGCAGCCUUCGGUGGCGCGAUACCGCCAACGUUCUAAACUAUGACACGCAAAACGGGUGCUCCGUUGAAUGGAGUUUAUCAUG | ≤ -4.2 |
| GGAUCUUCUCGAUCUAACAAAAAAGAGAAAGCUGCCACAAAGCUUGAGAGCAUCUUCGGAUGAAGAGGCGGCAGCCUUCGGUGGCGCGGUAGCGCCAACGUUCUCAACUAUGACACGCAAAACGCGUGCUCCGUUGAAUGGAGUCUAUCAUG | ≤ -4.2 |
| GGAUCUUCUCGAUCUAACAAAAAAGAGAAAUCUGCCACAAAGCUUGAGAGCAUCAUCGAAUGCAGAGGCGGCAGCCUUCGGUGGCGCGAUAGCGCCGACCUUCUCAACUAUGACACGCAAAACGCGUGCUCCGUUAAAUGGAGUUUAUCAUG | ≤ -4.2 |
| GGAUCUUCUCGAUCUAACAAAAAAGAGAAAUCUGCCACAAAGCUUGAGAGCAUCGUCGGAUGCAGAGGCGGCAGCCUUGGGUGGCGCGAUAGCGCAAACGUUCUCAACUAUGACACGUAAAACGCGUGCUCCGUUGAAUGCAGUUUAUCAUG | ≤ -4.2 |
| GGAUCUUCUCGAUCUAACAAAAAAGAGAAAUCUGCCACAAAGCUUGAGAGCAUCUUCGGAAGCAGAGGCGGCAGCCUUCGGUGGCGUGAUAGCGCCAACGUUCUCAACUAUGACACGCAAAACGCGUGCUCCGUUGAAUGGAGUUUAUCAUG | ≤ -4.2 |
| GGAUCUUCUCGAUCUAACAAAAAAGAGAAAUCUGCCACAAAGCUUGAGAGCAUCUUCGGAAGCAGAGGCGGCAGCCUUCGGUGGCGCGAUAGCGUCAACGUUCUCAACUAUGACACGCAAAACGCGUGCUCCGUUGAAUGGAGUUUAUCAUG | ≤ -4.2 |
| GGAUCUUCUCGAUCUAACAAAAAAGAGAAAUCUGCCACAAAGCUUGAGAGCAUCUUCGGAUGCAGAGGCGGCAGCCCUCGGUGAAGCGAUAACGCCAACGUUCGCAACUAUGACACGCAAAACGCGUGCUCCGUUGAAUGGAGUUUAUCAUG | ≤ -4.2 |
| GGAUCUUCUCGAUCUAACAAAAAAGAUGAAUCUGCCACAAAGCUUGAGAGCAUCUUCGGAUGCAGAGGCGGCAGCCUUCGGUGGCGCGAUAGCGCCAACGUUCUCAACUAUGACAUGCAAAACGCGUGCUCCGUUGAAUGGAGUUUAACAUG | ≤ -4.2 |
| GGAUCUUCUCGAUCUAACAAAAAAGAUUAAUCUGCCACAAAGCUUGAGAGCAUCUUAGGAUGCAGAGGCGGCAGCCUUCGGUGGCGCGUUAGCGUCAACGUUCUCAACUAUGACACGCAAAAUGCGUGCUCCGUUGAAUGGAGUUUAUCAUG | ≤ -4.2 |
| GGAUCUUCUCGAUCUAACAAAAAAGAUACAUCUGCCACAAAGCUUGAGAGCAUCUUCCGAUGCAGAGGCGGCAGCCUUCGGUGGAGCGAUAGCGCCAACGUUCUCAACUAUGACACGCAAAACGCGUGCUCCGUUGAAUGGAGUAUAUCAUG | ≤ -4.2 |
| GGAUCUUCUCGAUCUAACAAAAAAGAUAGAUCUGCCACAAAGCUUGAAAGCAUCUUCGGAUGCAGAGACGGCAGCCUUCGGUGGCGCGAUAGCACCAACGUUCUCAACUAUGACACGAAAAACGCGUGCUCCGCUGAAUGGAGUUUAUCAUG | ≤ -4.2 |
| GGAUCUUCUCGAUCUAACAAAAAAGAUAUAUCUGCCACAAAGCUUGAGAGCGUCUUCGGAUGCAGAGGCGGCAGCAUUCGGUGGCGCGAUAACGCCAACGUUCUUAACUAUGACACGCAAAACGCGUGCUCCGUUGAAUGGAGUUUAUCAAG | ≤ -4.2 |
| GGAUCUUCUCGAUCUAACAAAAAAGAUAUAUCUGCCACAAAGCUUGAGAACAUCUUCGGAUGCAGAGGCGGCAGCUUUCGGUGGCGCGAUAACGCCAACGUUCUCAACUAUGAUACGCAAAACGCGUGCUCCGUUGAAUGGAGUUUAUCAUG | ≤ -4.2 |
| GGAUCUUCUCGAUCUAACAAAAAAGAUAAAUCUGCCCCAAAGCUUGAGAGCAUCUUCGUAAGUCGAGGCGGCAGCCUUCGGUGGCGCGAUAUCGCCAACGUUCUCAACUAUGACACGCAAAACGCGUGCUCCGUUGAAUGGAGUUUAUCAUG | ≤ -4.2 |
| GGAUCUUCUCGAUCUAACAAAAAAGAUAAAUCUGCCACAAGGCUUGCGAGCAACUUCGGAUGCAGAGGCGGCAGCCUCCGGUGGCGCGAUAGAGCCAACGUUCUCAACUUUGACACGCAAAACGCGUGCUCCGUUGAAUGGAGUUUAUCAUG | ≤ -4.2 |
| GGAUCUUCUCGAUCUAACAAAAAAGAUAAAUCUGCCACAAAGCUUGCGAGCAUCUUCGGAUGCAGAGGCGGCAGCCUUCGGUGGCGCGAUAGCGCCAACGUUCUCAACUAUGACACGCAAAACGCGUGCUCCGUUGAAUGGAGUUUAUCAUG | -1.01 |
| GGAUCUUCUCGAUCUAACAAAAAAGAUAAAUCUGCCACAAAGCUUGCGAGCAUAUUCGGAGGCAGAGGCGGCAGCCGUCGGUGGCGCGAUAGCGCCAACGUUCUCAACUAUGACACGCAAAACGCGUGCUCCGUUGAAUCGAGUUUAUCAUG | ≤ -4.2 |

Source: the RNAGym collection of RNA variant scans (doi:10.1073/pnas.2313332121)
